According to PubChem BioAssay AID651820 (National Center for Advancing Translational Sciences (NCATS), 2012):
Several values for one entry are separate records, joined by “and”; a condition that tells them apart may be missing. Equal entries are not always repeated. Hit rate of the full screen: of about 340,000 compounds, about 12,000 (3.5%) were called active. This list was built around the results that the source calls inconclusive (neither active nor inactive); the mix of calls is not that of the screen. The call rests on the fitted dose curve; in most records, active means well fitted inhibition curve with a large enough effect; inconclusive means small, poorly fitted or top-dose-only effect, or another doubt; inactive means no such curve, though single readings can be large or run the other way. Where the call is inconclusive, the potency comes from a doubtful curve fit.
Potency means the concentration at half of the fitted maximal effect; tags describe the fitted curve by direction and shape.

Assay: qHTS Assay for Inhibitors of Hepatitis C Virus (HCV)
Settings: Huh7.5.1 HCVcc-Cre (HCVcc is cell-culture hepatitis C virus) infection, luciferase reporter, 44 h; series mostly up to 41.8 µM
How it was run: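 Infectious HCVcc-Cre (~0.5 moi) was added to cells just after compound, with cells seeded 4 h earlier at 1,000 per well. Luciferase activity after 44 h culture reported infection; substrate was incubated 15 min at room temperature before reading.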
For O=c1[nH]c(=S)[nH]c(O)c1/C=C1/C=c2ccccc2=N1, the Potency was inconclusive: 31.6 µM [inhibitor, single point].
With COC(=O)c1sccc1NC(=S)N1CCCC(C)C1 (centres undefined) the Potency was “inactive”.
For CCCCn1c(=O)n(CC(=O)Nc2ccc(C)c(Cl)c2)c(=O)c2c1ncn2Cc1ccco1, the Potency was inconclusive: 11.2 µM [inhibitor, single point] and inconclusive: 22.4 µM [inhibitor, single point].
With O=C1c2ccc3c4c(ccc(c24)C(=O)N1c1ccc(O)cc1)C(=O)N(c1ccc(O)cc1)C3=O the Potency was inconclusive: 5.01 µM [inhibitor, full curve, poor fit].
With Cc1noc(/C=C/N(C)C)c1S(=O)(=O)N1CCN(c2ccccc2)CC1 the Potency was inconclusive: 31.6 µM [inhibitor, single point].
In the case of Nc1nc(Cl)cc(N2CCC(c3cc(-c4ccc(Cl)cc4)n[nH]3)CC2)n1, the Potency is reported as active: 3.98 µM.
For CN(C)CC/C=C1/c2cc(F)ccc2Sc2ccc(Cl)cc21, the Potency was inconclusive: 22.4 µM [inhibitor, single point].
For CCCCCC[n+]1c(-c2ccccc2)csc1Nc1ccccc1, the Potency was “inactive”.
With CC(C)C(C)NC(=O)COc1ccc([N+](=O)[O-])cc1Cl (centres undefined) the Potency was inconclusive: 14.1 µM [inhibitor, single point].
In the case of CCCOC(=O)c1ccc(NC(=O)CC(C)(C)C)cc1, the Potency is reported as “inactive”.
For CCSc1nnc(NC(=O)c2cccc(S(=O)(=O)N(C)c3ccc(C)cc3)c2)s1, the Potency was “inactive”.
In the case of CCOC(=O)c1cccc(NC(=O)CSc2nnc(C)n2Cc2ccccc2)c1, the Potency is reported as inconclusive: 2.24 µM [inhibitor, full curve].
For FC(F)(F)c1cccc(-n2cc(-c3ccccc3)[nH]c2=S)c1, the Potency was inconclusive: 11.2 µM [inhibitor, single point].
In the case of Cn1cc(Br)c(C(=O)Nc2ccc3c(C(F)(F)F)cc(=O)oc3c2)n1, the Potency is reported as inconclusive: 10 µM [inhibitor, partial curve].
With C[C@H](NC(=O)c1nc[nH]c1C(=O)NC(c1ccccc1)c1ccccc1)C(=O)OC(C)(C)C the Potency was inconclusive: 22.4 µM [inhibitor, single point].
With C/C(=N\Nc1ncnc2sc(C)c(C)c12)c1ccccn1 the Potency was inconclusive: 10 µM [inhibitor, partial curve, poor fit].
For N#CNC(=Nc1cccc(F)c1)SCc1ccccc1, the Potency was inconclusive: 31.6 µM [inhibitor, single point].
In the case of O=C(Nc1ccc(Cl)cc1)OCc1cncs1, the Potency is reported as “inactive”.
In the case of COc1ccccc1OCc1ccc(C(=O)N2CCOCC2)o1, the Potency is reported as inconclusive: 5.62 µM [inhibitor, single point].
